# Source: the supplement of paper PMC7826260
# The list shows a part of the results. One pool of 16,384 single-stranded DNAs met each Rep nickase domain in vitro (3 µM enzyme, 1 h, 37 °C); shown is the middle of each 90-letter strand. A value is the log2 ratio of uncut reads to the pool without enzyme; strong cutting gives strongly negative numbers. There is no active / inactive call. Shares of all reads are compared; where an enzyme cuts many sequences, the uncut ones exceed 0.
# Test system: T1, Rep nickase domain of tomato golden mosaic virus
# T1 sequence (Rep 1-124, printed without the tag): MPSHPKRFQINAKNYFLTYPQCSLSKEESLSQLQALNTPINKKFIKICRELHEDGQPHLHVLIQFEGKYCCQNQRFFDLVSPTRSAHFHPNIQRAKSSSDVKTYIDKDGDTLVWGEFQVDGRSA
# Assay: uncleaved DNA left, log2 of reads against the no-enzyme library (log2 ratio); higher = less cleavage (more negative = more Rep cleavage of the k-mer); sequences stand for … in CTCGTCCG…ACCGGAGA
# Procedure: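 A pool of 90-nt single-stranded DNAs with seven random bases just before the constant AC of the nick site (name = the seven bases) was cut by 3 µM recombinant His6-SUMO-tagged Rep nickase domain (300 nM DNA, 50 mM HEPES pH 8.0, 50 mM NaCl, 1 mM MnCl2, 1 h, 37 °C, three replicates). Uncut DNA was amplified and sequenced.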
row,Sequence,uncleaved DNA left (log2)
1,CACCAAA,0.274
2,AATCGAG,-0.00198
3,GCAGAAG,-0.048
4,GTTTGTG,0.0436
5,CTTTCCC,-0.0979
6,TTATGCC,-0.133
7,ACAGTGG,-0.0589
8,GGAATCA,0.0454
9,CGCGGGT,-0.141
10,CACCTTC,-0.0465
11,AGGTAGA,-0.0156
12,GACAACT,-0.0728
13,CCTATCC,-0.124
14,CAATGCA,-0.102
15,TCCACCT,-0.24
16,TATAGAC,0.0528
17,ACATGAC,-0.0137
18,AGCTATC,-0.00157
19,GACCGTC,-0.0414
20,AGGAAGA,0.0968

row,Sequence,uncleaved DNA left (log2)
1,AAGCGTA,0.0921
2,ACTAACG,-0.0766
3,GCGAGAC,0.0267
4,AACCTCC,0.0883
5,TTAAAGA,0.0535
6,CTTGTAG,-0.0232
7,AACCTTC,-0.132
8,CCGAGCT,0.0917
9,CTACTGA,0.0676
10,AAGACGA,0.06
11,AAGGGAT,0.096
12,GGCATTG,-0.00531
13,GTACGTT,-0.126
14,TTAAAGG,0.117
15,TAATAAC,-2.45
16,CCCCGCG,0.0294
17,GGGGTTT,0.0349
18,TGAACAA,0.0692
19,AACAGGG,0.116
20,TACCGGC,0.16
